Article PMC3468502
Results are given in words; binding and its absence hold for the method and conditions named. For some of these results: In cells and extracts the contact can be indirect. Some binding calls cover weakened binding; strength is not graded here. For some of these results: Tags and fused reporters may be left off the sequences shown.

Amino acid sequences for entries named in this document (tags omitted).
UniProt Q9H165: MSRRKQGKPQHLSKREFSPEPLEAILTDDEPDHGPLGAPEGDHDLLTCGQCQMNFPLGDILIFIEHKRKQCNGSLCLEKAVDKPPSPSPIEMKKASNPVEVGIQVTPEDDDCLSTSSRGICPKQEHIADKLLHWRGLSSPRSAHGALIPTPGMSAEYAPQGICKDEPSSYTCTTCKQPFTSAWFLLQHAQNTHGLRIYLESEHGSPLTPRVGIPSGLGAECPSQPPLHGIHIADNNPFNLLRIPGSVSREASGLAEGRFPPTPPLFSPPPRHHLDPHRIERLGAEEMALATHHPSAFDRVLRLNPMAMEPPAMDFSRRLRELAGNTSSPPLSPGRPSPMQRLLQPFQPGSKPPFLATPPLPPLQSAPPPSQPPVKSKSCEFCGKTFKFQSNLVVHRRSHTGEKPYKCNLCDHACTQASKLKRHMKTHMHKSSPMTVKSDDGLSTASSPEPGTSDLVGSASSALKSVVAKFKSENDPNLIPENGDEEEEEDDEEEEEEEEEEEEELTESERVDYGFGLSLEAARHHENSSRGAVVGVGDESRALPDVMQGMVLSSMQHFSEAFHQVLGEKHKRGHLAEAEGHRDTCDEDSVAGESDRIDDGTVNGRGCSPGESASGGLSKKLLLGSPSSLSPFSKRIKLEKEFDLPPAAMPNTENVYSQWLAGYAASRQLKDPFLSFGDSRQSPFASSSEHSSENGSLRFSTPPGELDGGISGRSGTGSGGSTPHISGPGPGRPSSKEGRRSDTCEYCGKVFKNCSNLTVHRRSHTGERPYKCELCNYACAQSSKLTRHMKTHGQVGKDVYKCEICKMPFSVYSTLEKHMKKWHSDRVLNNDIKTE
UniProt P23511: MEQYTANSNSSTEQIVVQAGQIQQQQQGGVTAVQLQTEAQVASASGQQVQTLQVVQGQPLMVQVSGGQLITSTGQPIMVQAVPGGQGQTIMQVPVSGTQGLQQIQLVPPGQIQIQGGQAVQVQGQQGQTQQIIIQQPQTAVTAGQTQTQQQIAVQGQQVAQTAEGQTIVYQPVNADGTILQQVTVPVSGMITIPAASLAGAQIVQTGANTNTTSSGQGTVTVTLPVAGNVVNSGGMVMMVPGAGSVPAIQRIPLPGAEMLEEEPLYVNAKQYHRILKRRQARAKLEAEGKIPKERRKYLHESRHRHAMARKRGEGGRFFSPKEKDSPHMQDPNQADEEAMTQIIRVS
UniProt P15976: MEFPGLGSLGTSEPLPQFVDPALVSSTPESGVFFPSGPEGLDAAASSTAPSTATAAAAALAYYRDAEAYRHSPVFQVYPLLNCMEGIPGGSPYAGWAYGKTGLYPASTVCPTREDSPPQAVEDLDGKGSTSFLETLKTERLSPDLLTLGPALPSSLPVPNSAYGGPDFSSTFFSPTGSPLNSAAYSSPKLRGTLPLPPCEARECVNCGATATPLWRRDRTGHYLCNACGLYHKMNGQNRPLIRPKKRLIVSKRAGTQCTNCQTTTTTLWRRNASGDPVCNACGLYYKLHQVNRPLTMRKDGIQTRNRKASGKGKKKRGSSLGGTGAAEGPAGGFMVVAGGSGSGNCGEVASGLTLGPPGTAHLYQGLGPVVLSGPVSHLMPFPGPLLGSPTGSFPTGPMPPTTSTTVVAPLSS
UniProt P23769: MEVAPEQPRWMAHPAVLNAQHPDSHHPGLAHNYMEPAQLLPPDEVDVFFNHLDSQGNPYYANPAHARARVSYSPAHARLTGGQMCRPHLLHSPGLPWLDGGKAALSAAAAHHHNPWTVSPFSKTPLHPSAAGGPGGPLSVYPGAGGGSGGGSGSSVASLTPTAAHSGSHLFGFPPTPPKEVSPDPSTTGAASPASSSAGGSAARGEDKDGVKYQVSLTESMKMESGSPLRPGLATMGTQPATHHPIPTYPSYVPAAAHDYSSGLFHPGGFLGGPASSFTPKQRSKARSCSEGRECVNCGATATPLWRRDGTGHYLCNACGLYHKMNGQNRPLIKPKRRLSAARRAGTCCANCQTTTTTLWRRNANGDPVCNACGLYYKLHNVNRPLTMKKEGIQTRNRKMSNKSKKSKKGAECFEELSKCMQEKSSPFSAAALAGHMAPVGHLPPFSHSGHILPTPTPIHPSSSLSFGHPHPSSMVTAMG

Assays:
[1] = target: tagged BCL11A-XL expressed from a plasmid transfected into K562 cells (UniProt Q9H165); experiment: co-IP; in vivo co-IP: NF-YA, GATA-2, GATA-1 and BCL-XL expressed with different tags from plasmids separately transfected into K562 cells; pulled down by antibodies to the tags; associated proteins detected by Western blot
[2] = target: tagged NF-YA expressed from a plasmid transfected into K562 cells (UniProt P23511); experiment: as above
[3] = target: tagged GATA-1 expressed from a plasmid transfected into K562 cells (UniProt P15976); experiment: as above
[4] = target: tagged GATA-2 expressed from a plasmid transfected into K562 cells (UniProt P23769); experiment: as above
[5] = target: tagged BCL11A isolated from transfected cells for the in vitro co-IP (UniProt Q9H165); experiment: co-IP; in vitro co-IP of individual pairs of differently tagged proteins expressed in and isolated from K562 and/or 293 cells; both purified

binding [1] | binding [2] | binding [3] | binding [4] | binding [5] | Binder
binds | no binding | no binding | no binding | – | COUP-TFII of K562 cells (protein, UniProt P24468 1-414) MAMVVSTWRDPQDEVPGSQGSQASQAPPVPGPPPGAPHTPQTPGQGGPASTPAQTAAGGQGGPGGPGSDKQQQQQHIECVVCGDKSSGKHYGQFTCEGCKSFFKRSVRRNLSYTCRANRNCPIDQHHRNQCQYCRLKKCLKVGMRREAVQRGRMPPTQPTHGQFALTNGDPLNCHSYLSGYISLLLRAEPYPTSRFGSQCMQPNNIMGIENICELAARMLFSAVEWARNIPFFPDLQITDQVALLRLTWSELFVLNAAQCSMPLHVAPLLAAAGLHASPMSADRVVAFMDHIRIFQEQVEKLKALHVDSAEYSCLKAIVLFTSDACGLSDVAHVESLQEKSQCALEEYVRSQYPNQPTRFGKLLLRLPSLRTVSSSVIEQLFFVRLVGKTPIETLIRDMLLSGSSFNWPYMAIQ
– | – | – | – | binds | tagged COUP-TFII isolated from transfected cells for the in vitro co-IP (protein, UniProt P24468 1-414) MAMVVSTWRDPQDEVPGSQGSQASQAPPVPGPPPGAPHTPQTPGQGGPASTPAQTAAGGQGGPGGPGSDKQQQQQHIECVVCGDKSSGKHYGQFTCEGCKSFFKRSVRRNLSYTCRANRNCPIDQHHRNQCQYCRLKKCLKVGMRREAVQRGRMPPTQPTHGQFALTNGDPLNCHSYLSGYISLLLRAEPYPTSRFGSQCMQPNNIMGIENICELAARMLFSAVEWARNIPFFPDLQITDQVALLRLTWSELFVLNAAQCSMPLHVAPLLAAAGLHASPMSADRVVAFMDHIRIFQEQVEKLKALHVDSAEYSCLKAIVLFTSDACGLSDVAHVESLQEKSQCALEEYVRSQYPNQPTRFGKLLLRLPSLRTVSSSVIEQLFFVRLVGKTPIETLIRDMLLSGSSFNWPYMAIQ
binds | – | – | – | – | NF-YB of K562 cells (protein, UniProt P25208 1-207) MTMDGDSSTTDASQLGISADYIGGSHYVIQPHDDTEDSMNDHEDTNGSKESFREQDIYLPIANVARIMKNAIPQTGKIAKDAKECVQECVSEFISFITSEASERCHQEKRKTINGEDILFAMSTLGFDSYVEPLKLYLQKFREAMKGEKGIGGAVTATDGLSEELTEEAFTNQLPAGLITTDGQQQNVMVYTTSYQQISGVQQIQFS
– | – | – | – | binds | tagged NF-YB isolated from transfected cells for the in vitro co-IP (protein, UniProt P25208 1-207) MTMDGDSSTTDASQLGISADYIGGSHYVIQPHDDTEDSMNDHEDTNGSKESFREQDIYLPIANVARIMKNAIPQTGKIAKDAKECVQECVSEFISFITSEASERCHQEKRKTINGEDILFAMSTLGFDSYVEPLKLYLQKFREAMKGEKGIGGAVTATDGLSEELTEEAFTNQLPAGLITTDGQQQNVMVYTTSYQQISGVQQIQFS
